Measured values as given in the supplement of paper PMC12217912.
The other results are listed elsewhere or left out. The full chains were built here from the parent and the listed change. Values near 0.05 are background.

B1: TEV protease; numbered along this chain (parent)
chain: MGESLFKGPRDYNPISSSICHLTNESDGHTTSLYGIGFGPFIITNKHLFRRNNGTLVVQSLHGVFKVKDTTTLQQHLVDGRDMIIIRMPKDFPPFPQKLKFREPQREERICLVTTNFQTKSMSSMVSDTSCTFPSGDGIFWKHWIQTKDGQCGSPLVSTRDGFIVGIHSASNFTNTNNYFTSVPKNFMELLTNQEAQQWVSGWRLNADSVLWGGHKVFMVKPEEPFQPVKEATQL

Variants of: B1
Test: raw area under fraction-flipped curve 0-4 h after induction (AUC4h, not background-subtracted), DNA-recorder readout of cleavage of the substrate (dimensionless); higher = more cleavage of the substrate by the protease variant
Settings: temperature: 34 °C; time window: 0-4 h after rhamnose induction
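Also: Bxb1 expression induced with 0.2% (w/v) L-rhamnose at OD600 near 0.5, cultures sampled hourly, flipped fraction per protease–substrate barcode pair counted by paired-end Illumina sequencing.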

| Variant | area with substrate ENLYGQS | area with substrate ENLYHQS | area with substrate ENLYIQS | area with substrate ENLYLQS | area with substrate ENLYRQS | area with substrate ENLYWQS | area with substrate ENLYYQS | area with substrate ENLYEQS | area with substrate ENLYKQS | area with substrate ENLYPQS |
| --- | --- | --- | --- | --- | --- | --- | --- | --- | --- | --- |
| S154D | 0.0492 | 0.0467 | 0.0691 | 0.0812 | 0.0504 | 0.0437 | 0.0552 |  |  |  |
| S154V | 0.0497 | 0.0615 | 0.159 |  | 0.0706 | 0.0574 |  | 0.0596 | 0.0469 | 0.0692 |
| S154I |  |  |  |  |  |  |  | 0.0638 | 0.0654 |  |
| C131P | 0.0541 | 0.0649 | 0.116 |  | 0.0552 |  |  |  |  |  |
| C131F |  |  |  |  |  |  |  | 0.0601 |  |  |
| C131E | 0.0656 | 0.0671 | 0.115 |  |  |  |  |  |  |  |
| C131K |  |  |  |  |  | 0.104 |  | 0.0849 |  |  |
| E195H | 0.0697 |  | 0.118 |  | 0.0582 | 0.0798 | 0.0608 |  | 0.0453 | 0.0628 |
| D161G | 0.0365 | 0.0713 |  | 0.0881 | 0.056 | 0.0586 | 0.0504 | 0.079 | 0.0717 | 0.062 |
| K142N | 0.0315 | 0.0771 |  |  | 0.0697 |  |  | 0.0693 | 0.0633 |  |
| T114N |  |  |  | 0.102 |  |  | 0.0797 | 0.0649 |  | 0.0864 |
| H143N | 0.0679 |  |  |  |  | 0.0643 | 0.0483 | 0.0762 |  |  |
| T115K | 0.061 | 0.0675 | 0.133 | 0.0808 |  | 0.0739 | 0.0489 | 0.074 |  | 0.0681 |
| T115R | 0.053 | 0.058 |  | 0.0968 |  | 0.088 |  | 0.0739 | 0.0668 | 0.0962 |
| S171I | 0.062 |  |  |  |  |  |  |  |  | 0.0682 |
| L235Y |  | 0.0658 |  |  | 0.0068 |  |  | 0.0766 | 0.0691 |  |
| Q74P |  |  |  |  |  |  |  | 0.0675 | 0.046 |  |
| N177G | 0.0607 | 0.0605 | 0.0719 |  | 0.0536 | 0.0574 |  |  | 0.0512 | 0.0219 |
| V217L |  |  |  |  |  |  |  | 0.0444 |  |  |
| N178M | 0.0637 | 0.0984 | 0.213 |  |  |  |  | 0.0713 |  | 0.0846 |
| N178Q |  |  | 0.101 |  |  | 0.0776 |  | 0.0704 | 0.0517 |  |
| D128T | 0.0857 |  | 0.121 |  | 0.0695 |  |  | 0.0726 | 0.0578 | 0.0766 |
| N172A | 0.0564 | 0.0663 | 0.0667 |  |  |  | 0.0452 |  |  |  |
| N172Q |  | 0.0979 |  | 0.0541 |  |  |  | 0.056 | 0.0536 |  |

| Variant | area with substrate ENLYGQS | area with substrate ENLYHQS | area with substrate ENLYIQS | area with substrate ENLYLQS | area with substrate ENLYRQS | area with substrate ENLYWQS | area with substrate ENLYYQS | area with substrate ENLYEQS | area with substrate ENLYKQS | area with substrate ENLYPQS |
| --- | --- | --- | --- | --- | --- | --- | --- | --- | --- | --- |
| L77R |  | 0.0801 |  |  | 0.0653 | 0.0713 |  | 0.0598 | 0.0461 |  |
| A170Q | 0.0478 |  | 0.0613 |  |  |  |  |  |  | 0.0421 |
| K185V | 0.0599 | 0.074 | 0.0923 |  |  | 0.0668 | 0.0641 | 0.0752 | 0.0651 | 0.0587 |
| K185A | 0.0924 | 0.0625 |  | 0.0971 | 0.0623 | 0.0609 |  | 0.071 | 0.0315 | 0.0651 |
| G202I | 0.0582 |  | 0.053 |  | 0.0484 | 0.0543 |  | 0.051 | 0.0555 |  |
| M83R | 0.0582 | 0.058 |  |  |  |  |  |  | 0.0374 |  |
| M83L |  | 0.0743 | 0.133 | 0.0807 | 0.0654 |  | 0.0834 | 0.162 | 0.0585 |  |
| G153Q | 0.0278 |  |  |  |  |  |  | 0.0443 |  |  |
| G153S |  | 0.057 |  |  | 0.0595 |  | 0.0639 | 0.0611 |  | 0.0574 |
| G153F |  |  |  |  |  | 0.0587 |  | 0.0467 | 0.0434 |  |
| V58M | 0.0556 |  | 0.103 |  |  |  |  |  |  |  |
| N116V |  | 0.0735 |  |  | 0.0683 |  |  | 0.0679 |  | 0.0939 |
| N116T |  |  |  |  |  |  |  | 0.0677 |  |  |
| N116F |  | 0.0569 | 0.127 |  | 0.0381 |  | 0.0516 | 0.0422 | 0.0549 |  |
| W212N | 0.0224 | 0.0592 |  |  |  |  | 0.084 |  | 0.0249 |  |
| V165M |  |  |  |  |  |  |  | 0.0634 |  |  |
| V113K |  | 0.0656 | 0.0719 |  | 0.0783 | 0.0502 |  | 0.0564 | 0.0632 | 0.082 |
| Q194W | 0.0605 | 0.0678 |  |  |  |  |  |  |  |  |
| E223D | 0.0636 |  |  |  |  |  |  |  |  |  |
| F163K |  |  |  |  |  | 0.0756 |  | 0.0632 |  |  |
| F163P |  | 0.0688 | 0.0562 |  |  | 0.0318 | 0.0552 | 0.0601 |  |  |
| P228R |  | 0.0618 |  |  | 0.0597 | 0.0891 | 0.071 | 0.0735 | 0.0664 | 0.0714 |
| P228S |  | 0.0627 |  | 0.0976 |  | 0.0496 |  | 0.0643 | 0.114 |  |

Same assay, conditions: temperature: 34 °C; time window: 0-4 h after rhamnose induction

| Variant | area with substrate ENLYVQS | area with substrate ENLYMQS | area with substrate ENLYQQS | area with substrate ENLYSQS | area with substrate ENLYNQS | area with substrate ENLYTQS |
| --- | --- | --- | --- | --- | --- | --- |
| S154V | 0.131 |  |  |  |  |  |
| S154I |  | 0.082 | 0.0715 |  |  |  |
| C131P | 0.135 | 0.0734 |  | 0.0686 |  |  |
| C131F |  | 0.0953 |  |  |  |  |
| C131E | 0.156 |  |  | 0.091 |  |  |
| C131K | 0.135 |  |  |  | 0.204 |  |
| E195H | 0.135 |  | 0.0596 |  |  |  |
| D161G |  | 0.0906 | 0.0598 |  |  |  |
| K142N |  | 0.0768 |  | 0.0667 | 0.0744 |  |
| T114N | 0.126 | 0.058 |  |  | 0.0721 |  |
| T115K | 0.142 | 0.0864 | 0.0697 | 0.0854 |  |  |
| T115R |  | 0.093 | 0.0696 | 0.0569 |  | 0.0899 |
| S171I |  |  |  |  | 0.0637 |  |
| L235Y |  | 0.095 |  |  | 0.0614 | 0.0765 |
| Q74P |  |  |  | 0.078 | 0.0871 |  |
| N177G |  | 0.0596 |  |  |  | 0.0576 |
| V217L | 0.101 |  | 0.0666 | 0.0863 |  |  |
| N178M |  | 0.125 | 0.0678 |  |  | 0.136 |
| D128T |  | 0.127 | 0.0916 |  |  |  |
| N172A |  |  |  |  | 0.0605 |  |
| N172Q | 0.0687 |  |  |  | 0.0625 |  |

| Variant | area with substrate ENLYVQS | area with substrate ENLYMQS | area with substrate ENLYQQS | area with substrate ENLYSQS | area with substrate ENLYNQS | area with substrate ENLYTQS |
| --- | --- | --- | --- | --- | --- | --- |
| L77R | 0.0776 |  | 0.0517 | 0.0677 | 0.0586 | 0.0744 |
| K185V | 0.117 |  |  | 0.0692 | 0.0691 |  |
| K185A | 0.114 | 0.0746 | 0.0522 | 0.0752 | 0.0763 |  |
| G202I | 0.0598 | 0.0396 | 0.0616 |  |  |  |
| M83R | 0.0469 |  |  | 0.0641 | 0.0318 |  |
| M83L | 0.153 |  |  |  | 0.0656 |  |
| G153Q |  | 0.0552 |  |  | 0.0409 |  |
| G153S |  | 0.0582 |  |  | 0.0772 |  |
| G153F |  |  | 0.0571 |  | 0.0538 |  |
| V58M | 0.115 |  | 0.0573 |  | 0.0743 |  |
| N116V | 0.0486 |  | 0.0709 | 0.0709 |  |  |
| N116T | 0.0616 |  | 0.0422 |  |  | 0.0693 |
| N116F |  |  | 0.066 |  | 0.0635 |  |
| W212N |  | 0.0678 |  | 0.0634 |  |  |
| V165M |  |  |  |  | 0.0353 |  |
| V113K | 0.0917 | 0.0708 | 0.0963 | 0.0502 | 0.0606 | 0.0634 |
| Q194W | 0.0979 |  | 0.0599 | 0.0776 | 0.0831 |  |
| F163K |  | 0.0949 |  |  |  |  |
| F163P |  | 0.0583 |  | 0.0544 |  |  |
| P228R | 0.0836 | 0.0496 | 0.0826 |  | 0.0674 | 0.0755 |
| P228S | 0.123 | 0.0822 |  | 0.13 | 0.0764 |  |
